About 4,300 (8.3%) of roughly 52,000 compounds were called active. Rule as the data show it: active = survival mostly below about 52% (no sharp cut-off); inactive = mostly above about 56%. This is one part of the list.

The test has as its system DeltatarO mutant. Kind of test: S. aureus survival, RN4220 and DeltatarO strains – OD600, teichoic acid synthesis inhibitors, primary screen (AID 463173). Conditions: S. aureus RN4220 wild type/DeltatarO growth, OD600, 18 h, active compounds read low, screened at 18.75 µg/mL (by protocol).
Take `CCc1nnc2c(NCCc3ccc(OC)c(OC)c3)nc3ccccc3n12`: the survival is inactive: 133%.
On to `CN1C(N)=NC(=O)C1(CO)CO`, for which the survival was inactive: 97%.
As to `COc1ccc(-c2onc(C)c2C)cc1S(=O)(=O)NCc1ccc(Br)cc1`, the survival is inactive: 101%.
Regarding `O=C1CC(c2ccco2)CC(O)=C1C=NCCN1CCNCC1` (stereo not drawn), the survival was inactive: 92%.
With `Cc1ccc2cc(C#N)c(SCC(=O)N3CCCC3)nc2c1`, the survival was inactive: 103%.
With `Cc1cc(C)cc(NC(=O)CN(C)S(=O)(=O)c2ccc3[nH]c4c(c3c2)CCCC4)c1`, the survival was inactive: 72%.
As for `CCOc1ccc(CCNC(=O)c2c(C)oc3ncnc(N4CCOCC4)c23)cc1`, the survival is inactive: 95%.
The result for `COCCCNC(=O)CSc1nc2ccccc2c(=O)n1Cc1ccco1` reads inactive: 83%.
With `Cc1ccc(NC(=O)CN2C(=O)COc3ccc(S(=O)(=O)N4CCCCCC4)cc32)cc1C`, the survival is inactive: 82%.
For the compound `COc1ccc(CNC(=O)c2ccc3[nH]c(C)c(C)c3c2)c(OC)c1`, the survival was inactive: 81%.
The result for `N#C/C(=C\c1ccc(-c2ccc(F)cc2F)o1)c1nc2ccccc2[nH]1` reads active: 22%.
As to `CCC(C)(C)c1nnc(N)s1`, the survival was inactive: 84%.
As to `COc1ccc(C(=O)Nc2ccc(OCc3cc(=O)n4ccccc4n3)cc2)cc1`, the survival is inactive: 81%.
On to `COC(=O)c1c(NC(=O)COc2cc(C)c(Cl)c(C)c2)sc2c1CCCC2`, for which the survival was inactive: 147%.
Turning to `COc1ccc(OC)c(S(=O)(=O)Nc2cc3c(C(C)=O)c(C)oc3c3ccccc23)c1`, the survival was inactive: 52%.
Consider `COc1ccc(-c2cc(C(F)(F)F)nc(SCCC(=O)Nc3cc(C)on3)n2)cc1`, for which the survival is inactive: 86%.
The result for `CCOc1ccc(NS(=O)(=O)c2ccc3c(c2)CCN3C(C)=O)cc1` reads inactive: 127%; that for `CC(=O)N1C(Nc2ccc(Cl)cc2)CCN1c1ccccc1` (stereo not drawn), inactive: 103%; that for `CC(Oc1ccc(F)cc1)C(=O)Nc1cc(-c2ccc(F)c(F)c2)no1` (stereo not drawn), inactive: 59%.
`Cc1ccc(OCC(=O)N(Cc2ccco2)C2CCS(=O)(=O)C2)cc1` (stereo not drawn): the survival was inactive: 87%.
Turning to `CCOC(=O)c1ccc(S(=O)(=O)N2CCC(C(=O)OCC)CC2)cc1`, the survival is inactive: 86%.
As for `CN(C)CCC(=O)c1ccc2c(c1)OCO2`, the figure is inactive: 88%; as for `COc1ccccc1NC(=O)c1oc2ccccc2c1NC(=O)c1ccccc1C(F)(F)F`, inactive: 82%.
As to `CCOc1ccccc1NC(=O)C(C)Sc1nc(-c2ccccc2)c(C#N)c(=O)[nH]1` (stereo not drawn), the survival is inactive: 80%.
On to `Brc1cccc(Nc2nc3nonc3nc2NCc2ccco2)c1`, for which the survival is active: 6%.
With `Cc1cccc(NC(=O)c2sc3nc4c(cc3c2N)CN(Cc2ccccc2)CC4)c1`, the survival was inactive: 85%.
`COc1ccc(-c2cn3nc(N4CCC(C(=O)Nc5cccc(OC)c5)CC4)sc3n2)cc1`: the survival was inactive: 94%.
As for `CCOc1ccc(Sc2cc(C(=O)NC(C)CC)c3ccccc3n2)cc1` (stereo not drawn), the survival was inactive: 124%.
`COc1ccc(N2CCN(S(=O)(=O)c3ccc(OC)c(-c4noc(C)n4)c3)CC2)cc1`: the survival is inactive: 68%.
For `O=C(Cn1ncc2c3ccccc3n(Cc3ccc(Cl)cc3)c2c1=O)NCc1cccs1`, the survival was inactive: 90%.
As to `Cc1nc2sc(C(=O)Nc3ccc(F)cc3)c(N)c2c(-c2ccc(Br)cc2)c1C(=O)Nc1ccc(Cl)cc1`, the survival is inactive: 80%.
In the case of `CC(C)C(=O)N1CCC(CN=CC2=C(O)CC(C)(C)CC2=O)CC1`, the survival was active: 52%.
`COC(=O)c1ccc(NC(=O)CC2C(=O)N(c3ccc(F)cc3)C(=O)N2Cc2ccc(OC)cc2)cc1` (stereo not drawn): the survival was inactive: 126%.
For the compound `Cc1cc2nc(-c3ccc(OCc4ccc(F)cc4)cc3)cc(C(F)(F)F)n2n1`, the survival was active: 34%.
Consider `O=C(Nc1ccc(NC(=O)c2cccs2)cc1)c1cccc(Br)c1`, for which the survival is inactive: 98%.
Turning to `Cc1ccc(C)c(Cn2c(=O)n(Cc3ccc4c(c3)OCO4)c(=O)c3oc4ccccc4c32)c1`, the survival is inactive: 89%.
`CCCCOc1ccc(C(=O)NCCc2sc(-c3cccc(F)c3)nc2C)cc1`: the survival was inactive: 74%.
In the case of `Cc1ccc(C)n1-c1c(C(=O)NCCCN2CCN(c3ccc(F)cc3)CC2)sc2ncccc12`, the survival is inactive: 98%.
Take `O=C(C1CCN(S(=O)(=O)Cc2ccccc2)CC1)N1CCN(c2ccc(F)cc2)CC1`: the survival is inactive: 75%.
As for `Cc1ccc2c(=O)cc(C(=O)Nc3sc4c(c3C(N)=O)CCCC4)oc2c1`, the survival was inactive: 85%.
For `Cc1ccc(Cl)cc1-n1ncc2c(NCCCn3ccnc3)ncnc21`, the survival was inactive: 81%.
As for `O=c1cc(-c2ccc(F)cc2)nc(SCc2nc(-c3cccc(Cl)c3)no2)[nH]1`, the survival was inactive: 71%.
Take `Cc1cc(NC(=O)CSc2nc3c([nH]c4ccccc43)c(=O)n2-c2ccccc2)no1`: the survival was inactive: 72%.
Turning to `O=C(C1CCCN(S(=O)(=O)c2ccc(Br)s2)C1)N1CCN(c2ccc(F)cc2)CC1` (stereo not drawn), the survival was inactive: 75%.
`CCc1ccc(NC(=O)CSc2nccn2-c2cccc(C)c2C)cc1`: the survival was inactive: 87%.
In the case of `CC1CN(C(=O)N2CCC(C(=O)NCCC3=CCCCC3)CC2)c2cc(Cl)ccc2O1` (stereo not drawn), the survival is inactive: 65%.
As for `Cc1ccc(C2CC(=O)N(Cc3ccccc3)c3c2c(C)nn3-c2nc(C)cc(C)n2)cc1` (stereo not drawn), the survival is inactive: 86%.
The result for `COc1ccc(NC(=O)CSc2nc3ccncc3[nH]2)c(OC)c1` reads inactive: 95%; that for `CCC(C(=O)N1CCN(c2ccccc2F)CC1)n1nc(C)c2sc3ccccc3c2c1=O` (stereo not drawn), inactive: 53%; that for `COc1ccc(NC(=O)CCn2nc(-c3ccccc3OC)c3c(C)cc(C)nc32)cc1`, inactive: 70%.
For the compound `Cc1ccc(Cl)cc1N1CCN(C(=O)c2cccn3c(=O)c4cc(Cl)ccc4nc23)CC1`, the survival was inactive: 75%.
Consider `Cc1ccccc1OCc1ccc(-c2nc(C#N)c(N3CCN(C)CC3)o2)o1`, for which the survival is inactive: 68%.
The result for `Cc1ccc(-n2nc(C(=O)Nc3ccc(Cl)cn3)c3c4ccccc4n(C)c3c2=O)cc1` reads inactive: 130%.
`CC1=C(C(=O)OCC(C)C)C(c2ccc(OCc3ccccc3)cc2)N2C(=O)CCSC2=N1` (stereo not drawn): the survival is inactive: 52%.
As for `COc1ccc(C2C(=O)N(C3CCCCC3)CC(=O)N2CCc2ccc(OC)c(OC)c2)cc1` (stereo not drawn), the survival was inactive: 87%.
Turning to `Cc1ccc(C)c(CN2C(=O)C3(c4ccccc42)N(c2cccc(C(F)(F)F)c2)C(=O)CS3(=O)=O)c1` (stereo not drawn), the survival was inactive: 71%.
Turning to `Cc1ccc2oc(-c3cc(NC(=O)c4ccc5c(c4)OCCO5)cc(C)c3O)nc2c1`, the survival is inactive: 89%.
As for `COc1cc(NC(=O)c2nc3ccccc3nc2C)cc(OC)c1OC`, the figure is inactive: 84%; as for `CCOC(=O)c1cc(C)n(CC2CCC(C(=O)Nc3ccc(OCC)cc3)CC2)c1C` (stereo not drawn), inactive: 115%; as for `NS(=O)(=O)c1ccc(Nc2nc3nonc3nc2Nc2ccc(S(N)(=O)=O)cc2)cc1`, inactive: 122%.
Regarding `CCn1c(-c2ccccc2)n[nH]c1=S`, the survival is inactive: 98%.
With `COc1ccc2c(c1)-c1nc(NC(=O)c3ccccc3F)sc1CC2`, the survival was active: 2%.
The result for `CCN(CC)C(=O)c1sc2c(c1C)c(=O)n(-c1ccc(C)c(C)c1)c(=O)n2Cc1cc(=O)n2c(C)cccc2n1` reads inactive: 49%; that for `CCn1c(=O)cc(OCC(=O)NCc2ccccc2Cl)c2ccccc21`, active: 40%.
Turning to `COc1cccc(CNC(=O)C(NS(=O)(=O)c2ccc3c(c2)oc(=O)n3C)C(C)C)c1` (stereo not drawn), the survival is inactive: 93%.
Regarding `c1cc2c3c(cccc3c1)NC1(CCCCC1)N2`, the survival was inactive: 113%.
On to `COc1ccc(O)c(C2Nc3ccccc3-n3c(-c4ccccc4)c4c(=O)n(C)c(=O)n(C)c4c32)c1` (stereo not drawn), for which the survival was active: 3%.
With `COc1ccc(S(=O)(=O)Nc2cccc(-c3ccc(N4CCCCCC4)nn3)c2)cc1`, the survival was inactive: 86%.
Consider `Cc1c(C(=O)OCC2CCCCC2)[nH]c2c1C(=O)CC(c1ccc(Cl)cc1)C2` (stereo not drawn), for which the survival was inactive: 94%.
As for `Cc1cccc(NC(=O)CSc2nc(C3CCCC3)nc3c2c(=O)n(C)c(=O)n3C)c1C`, the figure is inactive: 67%.
For the compound `Cc1ccc(Cn2cc(/C=C(/C#N)C(=O)Nc3cccc(Cl)c3)c3ccccc32)cc1`, the survival is inactive: 80%.
On to `O=C(c1ccccc1)n1nc(-c2ccco2)nc1NCc1cccs1`, for which the survival was inactive: 81%.
For the compound `CCOc1ccc(CN(Cc2ccco2)C(c2ccc(C(F)(F)F)cc2)c2nnnn2CCOC)cc1` (stereo not drawn), the survival was inactive: 63%.
For `CCC(=O)OCc1cnc(C)c2oc(=O)c(C(=O)Nc3ccccc3C(F)(F)F)cc12`, the survival is inactive: 124%.
As for `O=c1cc(-c2ccccc2)nc2cc(-c3ccc(F)cc3)[nH]n12`, the figure is inactive: 115%; as for `COc1cc2ccccc2cc1C(=O)Nc1cc(-c2nc3ccccc3o2)ccc1C`, inactive: 111%.
The result for `Cc1cccc(N(C)C(=O)CN(C)S(=O)(=O)c2ccc3[nH]c4c(c3c2)CCCC4)c1` reads inactive: 87%.
Take `O=C(NCC1CCCO1)c1cc2ccccc2oc1=O` (stereo not drawn): the survival is inactive: 80%.
As for `COc1ccc(CNC(=O)CSc2ncc3c(n2)-c2cc(Cl)ccc2N(Cc2ccccc2)S3(=O)=O)cc1OC`, the figure is inactive: 80%; as for `COc1ccccc1NC(=O)Cn1c(=O)n(CCc2ccccc2)c(=O)c2c3c(sc21)CN(C(C)=O)CC3`, inactive: 67%; as for `Cc1nnc(SCc2nc(-c3ccc(Cl)cc3)no2)n1-c1ccc(F)cc1`, inactive: 94%.
For the compound `CCOc1ccccc1NC(=O)c1sc2nc(-c3ccc(OC)cc3)ccc2c1N`, the survival was inactive: 51%.
Consider `CCCN1CCN(CCNC(=O)Nc2cc(C)ccc2OC)CC1`, for which the survival was inactive: 82%.
For `COc1cc2c(C(=O)Nc3ccc(C)cc3Br)cn(C)c(=O)c2cc1OC`, the survival was inactive: 119%.
The result for `CCC1CCCCN1CCCNC(=O)c1c(O)nc2c(C)cccn2c1=O` (stereo not drawn) reads inactive: 79%; that for `COc1ccc(-n2c(/C=C/c3cccc4ccccc34)nc3ccccc3c2=O)cc1Cl`, inactive: 78%; that for `COc1ccc(CC(=O)Nc2c(C(=O)Nc3ccc(F)cc3)oc3ccccc23)cc1OC`, inactive: 81%.
The result for `COc1ccc(OC)c(CCNC(=O)CN2C(=O)COc3ccc(S(=O)(=O)N4CCC(C)CC4)cc32)c1` reads inactive: 67%.

The record behind these values is PubChem BioAssay AID463173 (ICCB-Longwood Screening Facility, Harvard Medical School, 2010).
